Reference: US20240360218A1 (KYMAB, published 2024)

Target: T1, TIGIT, recombinant analyte in SPR (Example 10) (UniProt Q495A1 22-141, limits assumed)
T1 construct: also called recombinant TIGIT
T1 sequence (looked up): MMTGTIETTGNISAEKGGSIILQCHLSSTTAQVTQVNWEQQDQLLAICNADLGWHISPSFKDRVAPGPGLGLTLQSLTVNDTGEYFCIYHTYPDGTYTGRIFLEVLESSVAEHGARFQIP
Assay: SPR (ProteOn), anti-human Fc capture, 25 C

B1: 1D05-IgG1 disabled (LAGA) with 1D05 kappa light chain (antibody)
heavy: EVQLVESGGGLVQPGRSLRLSCAASGFTFDDYAMHWVRQVPGKGLEWVSGISWIRTGIGYADSVKGRFTIFRDNAKNSLYLQMNSLRAEDTALYYCAKDMKGSGTYGGWFDTWGQGTLVTVSS[human IgG1 constant region with L235A G237A (EU numbers) omitted]
light: [about 100 residues omitted][about 100 residues omitted]
notes: also called Antibody 1; In-house anti-PD-L1
Does B1 bind?
Result: no binding (tested: 512 nM (top analyte concentration))
